The densities may have been worked out from excess volumes.
Assay: xn = mol fraction of the nth substance listed
Settings: 101 kPa

O + CCCC[N+]1(C)CCCC1.N#C[S-]
x1 = 1
Settings | mass density [kg/m3]
328.15 K | 985.7
338.15 K | 980.3
348.15 K | 974.8

O + CCCC[N+]1(C)CCCCC1.N#C[S-]
x1 = 1
Settings | mass density [kg/m3]
328.15 K | 985.7
338.15 K | 980.3
348.15 K | 974.8

O + CCCC[n+]1ccc(C)cc1.N#C[S-]
x1 = 1
Settings | mass density [kg/m3]
328.15 K | 985.7
338.15 K | 980.3
348.15 K | 974.8

O + CCCC[n+]1ccn(C)c1.N#C[S-]
x1 = 1
Settings | mass density [kg/m3]
328.15 K | 985.7
348.15 K | 974.8

CCCC[N+]1(C)CCCC1.N#C[S-] + O
mass density [kg/m3]
Settings | x2 = 0 | x2 = 0.0853 | x2 = 0.2203 | x2 = 0.3555 | x2 = 0.5252 | x2 = 0.6634 | x2 = 0.783 | x2 = 0.8623 | x2 = 0.9657
298.15 K | 1024.8 | 1024.7 | – | 1024.7 | – | 1022.6 | – | – | 1004
308.15 K | 1019.5 | 1019.4 | 1019.4 | 1019.2 | – | – | 1013.5 | – | –
318.15 K | 1014.2 | 1014.2 | – | 1013.8 | 1012.7 | 1010.8 | 1007.4 | – | –
328.15 K | 1009 | – | 1008.8 | 1008.3 | 1007.1 | 1004.9 | – | 996.8 | 987.8
338.15 K | – | 1003.7 | – | 1002.9 | 1001.5 | 998.9 | – | 991.4 | –
348.15 K | 998.7 | 998.5 | – | 997.5 | 995.8 | – | 988.8 | 984.8 | –

CCCC[N+]1(C)CCCCC1.N#C[S-] + O
mass density [kg/m3]
Settings | x2 = 0 | x2 = 0.1046 | x2 = 0.2774 | x2 = 0.3741 | x2 = 0.5111 | x2 = 0.6302 | x2 = 0.7172 | x2 = 0.8248 | x2 = 0.9351
318.15 K | 1019.5 | 1019.5 | 1019 | – | 1017.6 | 1015.9 | 1013.9 | 1009.2 | 999.2
328.15 K | 1014.2 | 1014.1 | – | – | 1011.9 | – | 1007.8 | 1002.9 | 993.1
338.15 K | 1009.1 | 1009 | – | 1007.6 | 1006.2 | 1004.1 | 1001.6 | 996.4 | 987.3
348.15 K | 1004 | 1003.8 | 1003 | 1002.2 | – | 998.2 | 995.5 | 989.9 | 981.5

— a compilation of properties of binary mixtures (doi:10.1007/s10953-012-9875-7)
